Results as given in US11766044B2, “Method for controlling PPO resistant weeds” (BASF SE, priority 2016, dated 2023).
Like-named read-outs stand apart in the source and are kept apart here.

Assays:
[1] = system: Ambrosia elatior (AMBEL, common ragweed), PPO resistant biotype 4 that contains the R98L mutation (w.6); settings: scale 0 to 100
From the text: (§1) The culture containers used were plastic flowerpots containing loamy sand with approximately 3.0% of humus as the substrate. The seeds of the test plants were sown separately for each species and/or resistant biotype. For the pre-emergence treatment, the active ingredients, which had been suspended or emulsified in water, were applied directly after sowing by means of finely distributing nozzles. The containers were irrigated gently to promote germination and growth and subsequently covered with transparent plastic hoods until the plants had rooted.
(§2) This cover caused uniform germination of the test plants, unless this had been impaired by the active ingredients. For the post-emergence treatment, the test plants were first grown to a height of 3 to 15 cm, depending on the plant habit, and only then treated with the active ingredients which had been suspended or emulsified in water. For this purpose, the test plants were either sown directly and grown in the same containers, or they were first grown separately as seedlings and transplanted into the test containers a few days prior to treatment. Depending on the species, the plants were kept at 10-25° C. or 20-35° C., respectively. The test period extended over 2 to 4 weeks. During this time, the plants were tended, and their response to the Individual treatments was evaluated.
(§3) The evaluation was carried out by using a scale from 0 to 100. 100 means no emergence of the plants or complete destruction of at least the above-ground parts, and 0 means no damage, or normal course of growth.
(§4) The plants used in a first greenhouse experiment were of the following species and biotype (Ambrosia eliator mentioned below is to be understood being a variety of Ambrosia artemisilfolia): […]

[2] = system: Ambrosia elatior (AMBEL, common ragweed), PPO resistant biotype 3 that contains the R98L mutation (w.5); settings: scale 0 to 100
From the text: as §1, §2, §3, §4

CCOC(=O)COc1ncccc1Oc1cc(-n2c(=O)cc(C(F)(F)F)n(C)c2=O)c(F)cc1Cl [compound (I).1]
100%: Weed control (%) w.6 ([1]; use rate 1 g/ha) | Weed control (%) w.6 ([1]; use rate 2 g/ha) | Weed control (%) w.5 ([2]; use rate 1 g/ha) | Weed control (%) w.5 ([2]; use rate 2 g/ha)
